About 3,600 (1.6%) of roughly 230,000 compounds were called active. The shares of active, inactive and inconclusive entries below differ from those in the screen. Calls come from the whole dose curve; as a rule, active = well fitted inhibition curve with a large enough effect (not every such curve was filed as active); inconclusive = small, poorly fitted or top-dose-only effect, or another doubt; inactive = no such curve, though single readings can be large or run the other way. A potency beside an inconclusive call is a rough fit, not a confirmed value. Where a structure was tested more than once in an assay, its records may differ in their call.
biological target: Lysine-specific demethylase 4E (Homo sapiens) (UniProt B2RXH2); assay: qHTS Assay for Inhibitors of Human Jumonji Domain Containing 2E (JMJD2E); details: JMJD2E catalytic domain, FDH-coupled NADH fluorescence (FDH is formaldehyde dehydrogenase); series mostly up to 57.1 µM; activity change, negative = inhibition: at the top concentration
Chain of UniProt B2RXH2 (B2RXH2 whole entry, looked up, the tested form may be a part): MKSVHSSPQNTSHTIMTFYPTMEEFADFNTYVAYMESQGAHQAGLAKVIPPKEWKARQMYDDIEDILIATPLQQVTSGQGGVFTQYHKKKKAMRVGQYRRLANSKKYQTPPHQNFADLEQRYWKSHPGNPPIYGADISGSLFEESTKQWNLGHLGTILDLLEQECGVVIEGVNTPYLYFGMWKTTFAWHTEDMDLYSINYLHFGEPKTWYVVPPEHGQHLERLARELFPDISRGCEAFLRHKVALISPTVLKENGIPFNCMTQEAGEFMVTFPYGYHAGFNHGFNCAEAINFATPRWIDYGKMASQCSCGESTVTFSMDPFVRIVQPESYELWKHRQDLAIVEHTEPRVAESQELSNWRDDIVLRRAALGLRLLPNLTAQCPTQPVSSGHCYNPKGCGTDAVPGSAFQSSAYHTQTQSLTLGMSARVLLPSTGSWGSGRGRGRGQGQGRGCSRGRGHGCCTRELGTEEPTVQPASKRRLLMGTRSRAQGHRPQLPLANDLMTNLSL
Note: nearly all actives have a fitted effect of over 50% in size.
Potency is the fitted concentration of half-maximal effect; tags give direction and shape of the fitted curve.
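Throughout, for activity change, negative = inhibition: 0% = wells with enzyme and -100% = buffer wells without enzyme.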

Q: `CN(C)c1cccc(C(=O)NCc2ccccc2)c1` was tested. Which Potency did it give?
A: inconclusive: 28.2 µM [inhibitor, partial curve]

Q: `CCOC(=O)Cn1nc2sc3ccccc3n2c(=O)c1=O` was tested. Which Potency did it give?
A: inconclusive: 28.2 µM [inhibitor, partial curve]

Q: Which Potency does the source give for `Cc1cccc(NC(=O)Cc2ccc(F)cc2)c1` here?
A: inconclusive: 39.8 µM [inhibitor, single point]

Q: Which “activity change, negative = inhibition” value does the source give for `C[C@@H]1C[C@H](OC(=O)c2ccccc2O)CC(C)(C)C1` here?
A: inactive: -3.22% [at 25.5 µM]

Q: `CCOc1ccc(CN(C)C(=O)CCl)cc1` was tested. Which Potency did it give?
A: inconclusive: 39.8 µM [inhibitor, single point]

Q: How did the Potency turn out when `Cc1ccc(-c2cc(C(=O)N/N=C/C=C/c3ccco3)c3ccccc3n2)cc1C` was run?
A: inconclusive: 39.8 µM [inhibitor, single point]

Q: For `Cc1ccc(C(=O)c2oc3ccccc3c2NC(=O)c2cc(-c3ccccc3O)n[nH]2)cc1`, which Potency is on record?
A: inconclusive: 25.1 µM [inhibitor, single point]

Q: `COc1ccc2c(C)cc3n[nH]c(=S)n3c2c1` was tested. Which Potency did it give?
A: inconclusive: 12.6 µM [inhibitor, partial curve]

Q: How did the “activity change, negative = inhibition” value turn out when `CO/N=C(\C(=O)NC1C(=O)N2C(C(=O)OCOC(=O)C(C)(C)C)=C(/C=C\c3scnc3C)CSC12)c1csc(N)n1` (stereo not drawn) was run?
A: inactive: -6.68%

Q: With `CN(C)S(=O)(=O)c1cc(NC(=O)CSc2ncc(C(F)(F)F)cc2Cl)ccc1Cl` as the compound, how does the “activity change, negative = inhibition” value read?
A: inactive: 6.75%

Q: With `Cc1ccccc1/C=N\NC(=O)c1csnn1` as the compound, how does the “activity change, negative = inhibition” value read?
A: inactive: 2.72%

Q: `C=CCc1ccccc1OCCSc1nc2ccc([N+](=O)[O-])cc2s1` was tested. Which “activity change, negative = inhibition” value did it give?
A: inactive: -6.99%

Q: With `C=C(C)COc1ccc2c(CC)cc(=O)oc2c1C` as the compound, how does the Potency read?
A: inconclusive: 31.6 µM [inhibitor, partial curve]

Q: With `O=C(NCCc1cnn(-c2ccccc2)c1)c1cc(COc2c(F)cccc2F)on1` as the compound, how does the “activity change, negative = inhibition” value read?
A: inactive: 4.83%

Q: How did the Potency turn out when `O=S(=O)(Nc1nc2ccccc2nc1NCC1CCCO1)c1cccs1` (stereo not drawn) was run?
A: inconclusive: 25.1 µM [inhibitor, single point]

Q: With `CCN(CC)CCCN=Cc1c(O)n(-c2c(C)cccc2C)c(=O)c2ccccc12` as the compound, how does the Potency read?
A: inconclusive: 35.5 µM [inhibitor, single point]

Q: `O=C(O)c1ccc(-c2nc(-c3ccccc3)c(-c3ccccc3)[nH]2)cc1` was tested. Which Potency did it give?
A: inconclusive: 15.8 µM [inhibitor, partial curve]

Q: Which Potency does the source give for `COc1ccc(NC(=O)c2sc3cc(C(F)(F)F)cnc3c2-c2cccs2)cc1` here?
A: inconclusive: 31.6 µM [inhibitor, single point]

Q: How did the Potency turn out when `Cn1c(=O)c2c(nc(NN=C3CCCC3)n2C)n(C)c1=O` was run?
A: inconclusive: 39.8 µM [inhibitor, single point]

Q: How did the Potency turn out when `COc1ccc(NC(=O)CC2SC(N)=NC2=O)c([N+](=O)[O-])c1` (stereo not drawn) was run?
A: inconclusive: 39.8 µM [inhibitor, single point]

Q: For `Cc1cc(-c2csc(NCc3ccccc3)n2)c(C)n1C`, which Potency is on record?
A: active: 28.2 µM

Q: `COc1ccc(S(=O)(=O)C(C#N)c2nc3ccccc3nc2N2CCCC(C)C2)cc1` (stereo not drawn) was tested. Which Potency did it give?
A: inconclusive: 22.4 µM [inhibitor, partial curve]

Q: Which Potency does the source give for `Cc1cc(=O)oc2ccc(OC(C)C(=O)O)cc12` (stereo not drawn) here?
A: inconclusive: 31.6 µM [inhibitor, partial curve]

Q: With `COc1ccc2c(c1)NC(C)(C)C=C2C` as the compound, how does the Potency read?
A: inconclusive: 6.31 µM [inhibitor, single point]

Q: For `Cc1ccc(/C=C/c2ccc(=O)n(Cc3ccc(Cl)cc3Cl)n2)cc1`, which Potency is on record?
A: inconclusive: 5.01 µM [inhibitor, single point]

Q: How did the Potency turn out when `CCCCC1=CC2=C(c3ccco3)C(=O)C(C)(OC(=O)c3ccc(OC)cc3)C(=O)C2=CN1Cc1ccco1` (stereo not drawn) was run?
A: active: 12.6 µM

Q: And the activity change, negative = inhibition?
A: inactive: -18% [at 11.4 µM]

Q: How did the “activity change, negative = inhibition” value turn out when `CC(NC(=O)COC(=O)Cc1ccsc1)C1CC2CCC1C2` (stereo not drawn) was run?
A: inactive: -0.526%

Q: With `CCc1ccc(/C=N/NC(=O)c2cc(-c3ccccc3OC)nc3ccccc23)s1` as the compound, how does the Potency read?
A: inconclusive: 35.5 µM [inhibitor, single point]

Q: Which Potency does the source give for `COc1ccc(-c2nc3c(c4nnc(SC(C)C(=O)Nc5ccc(C)cc5)n24)COC(C)(C)C3)cc1` (stereo not drawn) here?
A: inconclusive: 4.47 µM [inhibitor, full curve]

Q: `O=C(Nc1c(Cl)cc(Cl)cc1-c1nc2ccccc2s1)c1ccc(Br)o1` was tested. Which Potency did it give?
A: inconclusive: 35.5 µM [inhibitor, single point]

Q: How did the Potency turn out when `Nc1c(N2CCOCC2)cc(Cl)c2nonc12` was run?
A: inconclusive: 3.16 µM [inhibitor, full curve]

Q: With `CC1CCCCC1NC(=O)COC(=O)c1ccccc1NC(=O)c1ccco1` (stereo not drawn) as the compound, how does the Potency read?
A: inconclusive: 39.8 µM [inhibitor, single point]

Q: `CCOC(=O)N1CCN(C(=O)CCC(=O)N2CCOc3ccc(C)cc32)CC1` was tested. Which “activity change, negative = inhibition” value did it give?
A: inactive: -3.98%

Q: Which “activity change, negative = inhibition” value does the source give for `CC(NC(=O)/C=C/c1ccccc1)c1ccccc1` (stereo not drawn) here?
A: inactive: 6.08%

Q: `CC(=O)Nc1ccc(S(=O)(=O)N[C@H](C(=O)O)C(C)C)cc1` was tested. Which “activity change, negative = inhibition” value did it give?
A: inactive: 2.54%

Q: With `O=C(N/N=C\c1cn[nH]c1-c1ccccc1)c1cccs1` as the compound, how does the Potency read?
A: inconclusive: 39.8 µM [inhibitor, single point]

Q: How did the “activity change, negative = inhibition” value turn out when `COc1ccc(S(=O)(=O)N2CCOCC2)cc1NC(=O)CCc1c[nH]c2ccccc12` was run?
A: inactive: -11.1%

Q: With `CC(=O)Nc1sc2c(c1CN1CCN(c3ccc(F)cc3)CC1)CCCC2` as the compound, how does the “activity change, negative = inhibition” value read?
A: inactive: -0.652%

Q: Which Potency does the source give for `Cc1c(CC(C)C)nc(N)c(C#N)c1-c1ccccc1` here?
A: inconclusive: 25.1 µM [inhibitor, single point]

Q: Which Potency does the source give for `COCCCNC(=O)C1CCN(S(=O)(=O)c2c(C)noc2/C=C\c2ccc(OC)cc2)CC1` here?
A: inconclusive: 8.91 µM [inhibitor, single point]

Q: Which Potency does the source give for `O=C(O)c1ccc(N/N=C/c2cn(Cc3ccc(F)cc3)c3ccccc23)cc1` here?
A: inconclusive: 31.6 µM [inhibitor, partial curve]

Q: With `Cc1ccc(S(=O)(=O)Nc2nc3ccccc3nc2NCC2CCCO2)cc1C` (stereo not drawn) as the compound, how does the Potency read?
A: inconclusive: 25.1 µM [inhibitor, partial curve]

Q: How did the Potency turn out when `CNC(=O)/C(C#N)=C\c1ccc(CNS(=O)(=O)c2ccc(Cl)cc2)o1` was run?
A: inconclusive: 14.1 µM [inhibitor, partial curve]

Q: `CC(C)CC1=NN2C(=N)/C(=C\c3coc4ccccc4c3=O)C(=O)N=C2S1` was tested. Which Potency did it give?
A: inconclusive: 25.1 µM [inhibitor, partial curve]

Q: For `COc1cc(NC(=O)c2cccs2)c(C(=O)OCC(=O)NC(C)c2ccccc2)cc1OC` (stereo not drawn), which Potency is on record?
A: inconclusive: 35.5 µM [inhibitor, single point]

Q: How did the Potency turn out when `COc1ccc(Nc2nc3c(C)cccc3cc2C#N)cc1` was run?
A: inconclusive: 39.8 µM [inhibitor, single point]

Q: `C[C@@H](C(=O)Nc1ccc2ccccc2c1)[C@@H]1C[C@@]1(C)[C@@H](NC(=O)c1cnccn1)c1ccccc1` was tested. Which Potency did it give?
A: inactive

Q: With `O=C(O)Cn1cnc2c(=S)nc[nH]c21` as the compound, how does the Potency read?
A: inconclusive: 35.5 µM [inhibitor, single point]

Q: `O=C(O)c1cc(N2C(=O)C3CCCCC3C2=O)ccc1NCc1cccnc1` (stereo not drawn) was tested. Which Potency did it give?
A: inconclusive: 28.2 µM [inhibitor, partial curve]

Q: For `Cc1cc(NCCO)c2cc(O)ccc2n1`, which Potency is on record?
A: inconclusive: 31.6 µM [inhibitor, partial curve]

Q: With `O=C(Nc1ccc(-c2nc3ccccc3o2)cc1)c1ccc(N2C(=O)C3C4C=CC(C4)C3C2=O)cc1` (stereo not drawn) as the compound, how does the Potency read?
A: inconclusive: 20 µM [inhibitor, partial curve]

Q: With `O=C(COC(=O)CNC(=O)c1ccc2c(c1)OCO2)Nc1ncc(Cl)cc1Cl` as the compound, how does the Potency read?
A: inconclusive: 39.8 µM [inhibitor, single point]

Q: With `COc1nc2ccc(C)cc2cc1-c1noc(-c2ccccc2)n1` as the compound, how does the Potency read?
A: inconclusive: 31.6 µM [inhibitor, partial curve]

Q: Which Potency does the source give for `CCOC(=O)c1cc(C#N)c(N)nc1C` here?
A: inconclusive: 28.2 µM [inhibitor, partial curve]

Q: For `CC1=C(C(=O)OCc2ccc3c(c2)OCO3)C(c2ccc(F)cc2)NC(=O)N1` (stereo not drawn), which “activity change, negative = inhibition” value is on record?
A: inactive: 1.02%

Q: Which Potency does the source give for `COc1ccccc1NC(=O)CCc1c(C)nc2c(-c3ccc(F)cc3)c(C)nn2c1C` here?
A: inconclusive: 25.1 µM [inhibitor, single point]

Q: `O=C(Nc1cccn(Cc2ccccc2)c1=O)NC1CCCCC1` was tested. Which Potency did it give?
A: inconclusive: 28.2 µM [inhibitor, partial curve]

Q: With `CCCC1=NN2C(=N)/C(=C\c3cc(C)n(-c4cccc(C)c4)c3C)C(=O)N=C2S1` as the compound, how does the Potency read?
A: active: 8.91 µM

Q: `Cc1nc(-c2ccc(NC(=O)c3cccs3)cc2)cs1` was tested. Which Potency did it give?
A: inconclusive: 35.5 µM [inhibitor, single point]

Q: For `CCN(CC)c1c(-c2ccccc2)c2cc(C)ccc2[nH]c1=O`, which Potency is on record?
A: inconclusive: 35.5 µM [inhibitor, single point]

Q: For `COCCOC(=O)C1=C(C)NC(C)=C(C(=O)OCCOC)C1/C=C/c1ccccc1OC`, which Potency is on record?
A: inconclusive: 25.1 µM [inhibitor, partial curve]

Q: How did the Potency turn out when `Cn1c(=O)c(=O)n(C)c2cc(S(=O)(=O)N3CCOCC3)ccc21` was run?
A: inconclusive: 28.2 µM [inhibitor, partial curve]

Q: For `Cc1ccc2nc(-c3ccncc3)cc(-c3ccccc3)c2c1`, which Potency is on record?
A: inconclusive: 35.5 µM [inhibitor, single point]

Q: `COc1ccc2c(-c3ccccc3)cc(N3CCOCC3)nc2c1` was tested. Which Potency did it give?
A: inconclusive: 31.6 µM [inhibitor, partial curve]

Q: How did the Potency turn out when `OC1=C(O)c2nc3cc(C(F)(F)F)ccc3nc21` was run?
A: inconclusive: 5.62 µM [inhibitor, single point]

Q: Which Potency does the source give for `Cc1coc2c1c(C)cc1oc(=O)c(Cc3ccccc3)c(C)c12` here?
A: inconclusive: 1 µM [inhibitor, full curve]

Q: `CCN(CC)CCCN1C(=O)C(=O)/C(=C(/O)c2ccc3c(c2)OCCO3)C1c1ccco1` (stereo not drawn) was tested. Which Potency did it give?
A: inconclusive: 31.6 µM [inhibitor, single point]
